# Test results: the supplement of paper PMC3334620
# Whole data set: some 33,000 sequences, median “E-score (-0.5 to 0.5)” near -0.054, cut for the highest 2% near 0.35. This is one part of the list.
# Target: T1, Stb5 (UniProt P38699)
# T1 sequence: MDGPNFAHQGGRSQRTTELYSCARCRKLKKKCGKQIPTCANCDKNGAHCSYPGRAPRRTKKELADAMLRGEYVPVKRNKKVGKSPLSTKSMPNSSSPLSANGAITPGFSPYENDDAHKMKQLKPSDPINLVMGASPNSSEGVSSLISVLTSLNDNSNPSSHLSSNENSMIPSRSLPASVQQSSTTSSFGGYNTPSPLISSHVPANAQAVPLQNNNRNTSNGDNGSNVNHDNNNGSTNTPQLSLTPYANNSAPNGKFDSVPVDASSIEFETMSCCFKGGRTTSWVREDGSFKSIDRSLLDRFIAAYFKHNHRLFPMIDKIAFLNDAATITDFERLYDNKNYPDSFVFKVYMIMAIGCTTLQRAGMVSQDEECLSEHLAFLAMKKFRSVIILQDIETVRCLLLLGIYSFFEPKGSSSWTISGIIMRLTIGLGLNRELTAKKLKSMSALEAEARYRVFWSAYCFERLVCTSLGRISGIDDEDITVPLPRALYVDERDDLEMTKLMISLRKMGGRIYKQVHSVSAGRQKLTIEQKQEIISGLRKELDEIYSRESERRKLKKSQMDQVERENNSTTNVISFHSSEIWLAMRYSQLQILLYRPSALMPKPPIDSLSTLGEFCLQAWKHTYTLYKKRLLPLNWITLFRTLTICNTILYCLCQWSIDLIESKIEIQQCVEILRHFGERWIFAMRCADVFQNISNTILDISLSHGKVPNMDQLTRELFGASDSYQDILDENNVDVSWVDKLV
# Test: PBM E-score (8-mer binding enrichment) (E-score (-0.5 to 0.5)); higher = stronger / more preferred TF binding; most listed sequences are background and not binding sites
# Conditions: protein concentration: 200 nM; construct: GST-full length
# Procedure, shortened: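 Bound GST-tagged yeast transcription factors, applied at about 100-200 nM to double-stranded universal all-10-mer Agilent arrays, were detected with fluorescent anti-GST. Scans were normalised with masliner. A modified Wilcoxon-Mann-Whitney statistic, the E-score, was assigned to each ungapped eight-base word pooled with its reverse complement by the Universal PBM Analysis Suite.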
row,Sequence,PBM E-score
1,GAGTATGA,-0.0342
2,ACTATTGA,-0.158
3,TCCGATAA,0.248
4,AGTGGATA,0.0226
5,AGACGGGG,0.337
6,CTGAATAA,-0.0873
7,TAATTATA,0.0829
8,GGCGAAGA,0.0363
9,CCCCTACG,-0.117
10,CCAGCTTC,-0.334
11,CGCACTAC,-0.0166
12,CAAGGATA,0.0115
13,ACCACTTG,-0.106
14,CACGGTAG,0.0342
15,GTCGTTAA,-0.0792
16,AGCCCCTC,-0.251
17,CCCAAAAC,-0.185
18,CACTAGTG,-0.189
19,CATTATGA,-0.0857
20,CAAAAACG,-0.0422
21,CTCGAAAA,-0.0432
22,CAACCAAG,-0.0924
23,CGGGGGCA,0.275
24,ACATGAGC,-0.133
25,GAACGATA,-0.129

row,Sequence,PBM E-score
1,GACGAATC,-0.0686
2,AGTAACAG,-0.0575
3,AAGCCCGG,0.411
4,AGATACCC,-0.00091
5,CGCTCATA,0.155
6,AAACCCTA,-0.116
7,ACCTCTGG,-0.0823
8,CAGACCCC,0.0611
9,AGAGATGG,0.0604
10,ACAAATCA,-0.17
11,GTGATAAC,0.147
12,TAGAGAGA,-0.0919
13,CCCCAGGG,-0.252
14,GGATCACA,-0.0709
15,CAATTGCC,0.0086
16,GCGTCGCC,-0.0704
17,CACCGCCA,0.408
18,CTCCAACC,-0.0939
19,CGGTTCTA,0.36
20,ATGCCCAC,-0.159
21,AGTTCGAG,-0.218
22,AAATTCAC,0.0649
23,ATGATCCC,0.175
24,CACCGAAG,0.253
25,GATAAATA,0.0331

row,Sequence,PBM E-score
1,TGGTTGAA,-0.234
2,GGCTAAAC,-0.00562
3,GGGCGCAA,0.0579
4,GGATTATA,0.234
5,AACGTCAC,-0.192
6,ATCATGCG,-0.0179
7,ATCCTACA,-0.14
8,CGCAAGGC,0.0922
9,CGGAGCAC,0.121
10,ATTCAAAG,-0.12
11,CGTAACAG,0.0569
12,ACGGGGAG,0.202
13,CGCGGGTC,0.208
14,CAACGACA,-0.0514
15,CCTTAGTA,-0.0689
16,CAGACCTA,-0.311
17,AACTCCGC,0.438
18,ACCTTGAG,-0.22
19,ACCAGGGT,-0.165
20,CAGAATGG,-0.284
21,GGGTAAAC,0.0693
22,GAACAGTA,-0.166
23,GTTATACA,0.0285
24,CCGGCCCC,0.177
25,AACTGTAC,-0.233

row,Sequence,PBM E-score
1,GTGAATCA,-0.0539
2,TCAATGCA,-0.182
3,CTGATGTA,-0.0976
4,AGCGAATA,-0.136
5,AAATGTGT,-0.0313
6,AGACGTCT,-0.264
7,GAAAAACC,0.179
8,AAATTTAC,0.0373
9,CTCGGTGC,0.148
10,CGCACTGC,0.0549
11,AAGCGGGG,0.296
12,CGTTTAAG,0.105
13,ACGCAGGG,-0.183
14,AACCATCG,0.041
15,AGCTCAGC,-0.295
16,GGTACCGA,0.286
17,CACAGCTG,-0.0609
18,ATTGTACC,0.093
19,CTCACGGC,0.219
20,TACGCCGA,0.299
21,GGCACTTA,0.149
22,AAATAGGG,-0.109
23,AGTCTTAG,-0.256
24,CAGTTAGG,-0.226
25,GTATCTAA,-0.051

row,Sequence,PBM E-score
1,ACAAAAAC,0.112
2,GAACATAC,-0.0026
3,GGCAACAC,0.0891
4,AGGCAGTA,-0.205
5,TAACGAAA,0.039
6,TCCGTACA,0.219
7,ACGAGCGA,-0.338
8,GACTACAA,-0.147
9,CAGGAGGA,-0.0178
10,GAATGGCA,0.14
11,CGCAGATA,0.117
12,ATCTCGAC,-0.15
13,ACTCCTCG,-0.248
14,ACAGTGCG,-0.0748
15,GAGCGATA,-0.0773
16,AAGAATAT,0.0316
17,GCGCACAA,-0.0271
18,CTAGTTGC,-0.00724
19,AGTCGTTA,-0.191
20,CGTCCCCC,-0.00848
21,ACGGTGTA,0.348
22,ATAATCGG,0.16
23,GCGGAAAC,0.0966
24,ATACCATC,-0.0698
25,CCTTGTTA,-0.065

row,Sequence,PBM E-score
1,ATCTGATG,-0.0851
2,AACTCTTG,-0.358
3,AACACGGC,0.0701
4,AGTCTGGG,-0.291
5,ATAAGGCC,0.359
6,AGTCGATA,-0.208
7,AGATGGGA,-0.13
8,AGCAATGC,-0.169
9,AGACAGAT,-0.181
10,GCGACTCC,-0.106
11,TGTCATAA,-0.107
12,CTCTGCAA,-0.142
13,ATTCCTAA,-0.0714
14,AAACGAAG,-0.0773
15,CGACGTTC,-0.228
16,GATCAAAA,-0.093
17,GTGCGCCA,0.057
18,TGGCTAAA,-0.0391
19,GTAAAAAA,0.0255
20,GTCGAATA,-0.0352
21,CATAATGG,-0.0724
22,CACAGCGA,-0.0284
23,CCGTTACC,0.19
24,ATACGCTA,0.0695
25,AGACGGAG,0.215

row,Sequence,PBM E-score
1,GATATGAA,-0.0268
2,ATTATGTA,0.0338
3,ATCTTAGA,-0.0369
4,CACTAATG,-0.112
5,ACCAGTCT,-0.215
6,ACTCCCCC,-0.0621
7,ACTTGAAC,-0.0012
8,AAGTATAC,-0.0677
9,GTGACGCA,-0.214
10,ACGTCTGG,-0.218
11,ACCGGTTG,0.196
12,CGTCTCTC,-0.127
13,ACTCTTCA,-0.248
14,CTTGCGAA,0.0336
15,ATCGTCGG,0.252
16,ACTCGTTC,-0.148
17,ACTGCGTC,-0.0549
18,ACGGAAAT,0.306
19,GAACGCAA,-0.12
20,AACAAAAA,0.00198
21,AGGTTAGG,-0.0779
22,ACCCAGGT,-0.0611
